# In PubChem BioAssay AID488969 (Vanderbilt High Throughput Screening Facility, 2010):
# In all, about 110,000 compounds were measured (“z-score”: median about -0.1, highest 2% from about 2 on). Some of the results follow. Calls of active or inactive are those of the source.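 Rule for the calls: active = z-score in the third read window above 3 or below -3; inactive = the rest.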
# Target: Metabotropic glutamate receptor 8 (Rattus norvegicus) (UniProt P70579)
# Assay: rat mGluR8 modulators via GIRK flux, primary screen, cell-based, thallium flux, HTS (AID 488969)
# Settings: HEK293 rat mGluR8, GIRK (G protein-gated inwardly rectifying potassium channel) thallium flux, FluoZin2; at 10 µM; stronger effect = higher value; submaximal glutamate (EC20) added with thallium
# Chain of UniProt P70579 (P70579 whole entry, looked up): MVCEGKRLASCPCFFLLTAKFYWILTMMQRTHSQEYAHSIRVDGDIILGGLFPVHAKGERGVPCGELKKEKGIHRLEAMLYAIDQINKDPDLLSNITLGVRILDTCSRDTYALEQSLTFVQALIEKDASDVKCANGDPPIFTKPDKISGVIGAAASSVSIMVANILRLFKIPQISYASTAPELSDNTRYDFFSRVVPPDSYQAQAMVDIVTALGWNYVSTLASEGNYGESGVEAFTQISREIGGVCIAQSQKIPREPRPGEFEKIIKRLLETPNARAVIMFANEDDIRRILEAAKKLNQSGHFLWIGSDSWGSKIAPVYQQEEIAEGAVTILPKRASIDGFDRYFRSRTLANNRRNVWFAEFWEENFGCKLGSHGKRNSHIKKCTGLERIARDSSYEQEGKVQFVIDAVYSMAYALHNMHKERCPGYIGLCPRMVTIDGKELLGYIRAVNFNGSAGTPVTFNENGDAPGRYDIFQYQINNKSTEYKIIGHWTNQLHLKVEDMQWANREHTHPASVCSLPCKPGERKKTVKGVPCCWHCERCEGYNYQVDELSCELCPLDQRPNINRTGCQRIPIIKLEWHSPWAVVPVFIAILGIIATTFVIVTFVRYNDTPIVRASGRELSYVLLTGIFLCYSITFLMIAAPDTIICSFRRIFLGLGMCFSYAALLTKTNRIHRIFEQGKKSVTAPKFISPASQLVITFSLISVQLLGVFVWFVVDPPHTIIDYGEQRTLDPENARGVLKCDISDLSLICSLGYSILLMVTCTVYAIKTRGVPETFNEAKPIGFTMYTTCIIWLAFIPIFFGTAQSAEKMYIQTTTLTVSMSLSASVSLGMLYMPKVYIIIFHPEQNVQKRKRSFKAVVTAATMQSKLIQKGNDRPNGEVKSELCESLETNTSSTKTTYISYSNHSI
row,Structure (SMILES),z-score
1,Cc1cc(C)nc(Nc2ccc(N3CCCC3)cc2)n1,0.089
2,Cc1[nH]nc(-c2ccc(OCc3cnn(-c4ccccc4)c3)cc2O)c1Oc1ccccc1F,-0.0892
3,O=C1c2ccccc2C(=O)N1CC(O)CN1CCOCC1 (configuration not stated),0.337
4,COc1ccc(-c2noc(CN(C(=O)c3cccs3)C(C)C)n2)cc1,0.0511
5,COc1ccc(NC(=O)CN(C)S(=O)(=O)c2cccs2)cc1,0.198
6,CCn1c(SCC(=O)N2CCCc3ccccc32)nnc1-c1ccoc1C,-0.224
7,Cc1cc(C)n(-c2cc(=O)n(C)c(=O)n2C)n1,-0.17
8,COc1cccc(-n2ccnc2SCC(=O)Nc2cc(OC)ccc2OC)c1,-0.377
9,CCCN1C2=NCCN2c2cc(C)c(C)cc21,-0.319
10,CCCc1cc(=O)[nH]c(SCC(=O)Nc2cc3c(cc2C(C)=O)OCO3)n1,-0.969
11,CCOC(=O)C1CCCN(Cc2ccccc2OCC)C1 (configuration not stated),0.609
12,O=C(NCc1ccccc1)c1ccc(OC2CSC2)cc1,-0.0484
13,COc1ccc2[nH]c(C)c(C(=O)CN(C)C)c2c1,0.739
14,COc1cccc(-n2nnc3c(=O)n(CC(=O)OCc4ccccc4)cnc32)c1,-0.0992
15,COc1ccc(NC(=O)CN(C)S(=O)(=O)c2ccc(C)cc2)c([N+](=O)[O-])c1,-0.104
16,Cc1c(Br)c([N+](=O)[O-])nn1C(C)C(=O)Nc1ccc2c(c1)OCO2 (configuration not stated),-0.225
17,CCN(CC)C(=O)C1CCN(CC2CC=CCC2)CC1 (configuration not stated),0.393
18,O=C(NCc1cccnc1)C1CC(=O)N(c2ccc(Cl)cc2)C1 (configuration not stated),-0.393
19,O=C(Oc1cc(Cl)ccc1Cl)c1ccc(N2CCOCC2)c([N+](=O)[O-])c1,-0.0444
20,CCOC(=O)c1cc(NC(=O)C2CCCO2)cc(C(=O)OCC)c1 (configuration not stated),-1.11
21,Cn1c(Oc2ccc(Cl)c3cccnc23)nc2c1c(=O)n(Cc1ccccc1Cl)c(=O)n2C,-0.261
22,CCCn1c(=N)n(CC(O)COc2cccc(C)c2)c2ccccc21 (configuration not stated),active: 3.74
23,CCn1c(SCC(=O)c2ccc3c(c2)Cc2ccccc2-3)nnc1-c1ccc(N)cc1,0.446

row,Structure (SMILES),z-score
1,COc1ccc(-n2nnnc2-c2cccc(OC)c2)cc1,-0.094
2,CCN(C(=O)CSc1ncn[nH]1)c1cccc2ccccc12,0.189
3,COc1ccccc1N(CC(=O)NC(C)(C)C)S(=O)(=O)c1cccs1,0.0455
4,CCOC(=O)CSc1nnc(CNC(=O)c2cccs2)n1-c1ccccc1,-0.777
5,Cc1cc2c(C)c(C)c(=O)[nH]c2cc1N,0.908
6,COc1ccc(CNC(=O)COC(=O)Cc2ccc(Cl)cc2Cl)cc1,-0.0429
7,COC(=O)c1c(C(=O)OC)n(CCCN)c2ccc(C)cc12,0.31
8,Cc1ccc(CNn2cnnc2SCc2ccc(F)cc2)cc1,-0.0746
9,O=C(Nc1ccc2nc(-c3cccs3)[nH]c2c1)c1ccco1,-0.278
10,O=C(CCSc1ccccc1)Nc1nnc(-c2ccccc2)o1,0.683
11,O=C(Cc1cccs1)Nc1nc(-c2ccc(F)cc2F)cs1,-0.0368
12,CC1C(c2ccccc2)N(C)CCC12NC(=O)NC2=O (configuration not stated),-0.109
13,Cc1nc(/C=C/c2ccccc2)cc(/C=C/c2ccccc2)n1,-0.938
14,COc1ccc(S(=O)(=O)N(Cc2ccccc2)c2ccccc2C(=O)Nc2ccccc2C(=O)NCc2ccco2)cc1,0.274
15,O=C(COc1ccccc1Cl)NNC(=O)C1CCCO1 (configuration not stated),0.173
16,N=c1sccn1CC(=O)Nc1cccc2ccccc12,-0.00239
17,Cc1ccc(-c2csc(N(CCc3ccccc3)C(=O)COc3ccccc3)n2)cc1,-0.529
18,c1ccc(C2=Nc3ccccc3NC(c3ccccc3)C2)cc1 (configuration not stated),-0.159
19,Cn1c(=O)cc(OCCCC(=O)Nc2ccc3c(c2)OCCO3)c2ccccc21,-0.101
20,COCC(C)n1c(C)cc(C(=O)CSc2ccc(NC(C)=O)cc2)c1C (configuration not stated),0.445
21,Cc1cc2cc(CNC(=O)CCC(=O)O)ccc2[nH]1,-0.0115
22,CCc1ccccc1N1CCN(S(=O)(=O)c2ccc(F)c(C)c2)CC1,-0.506
23,N=C1C(c2nc3ccccc3c(=O)[nH]2)=C(O)CN1CCc1ccccc1,-0.107

row,Structure (SMILES),z-score
1,CCOC(=O)C1CCCN(C(=O)Cn2nc(Cc3cccnc3)c3ccccc3c2=O)C1 (configuration not stated),0.256
2,CCOc1ccc2nc(NC(=O)CSc3nc4cccnc4n3C)sc2c1,-0.276
3,Cc1ccc(C)c(S(=O)(=O)Nc2ccc3scnc3c2)c1,-0.501
4,Cc1cc([N+](=O)[O-])nn1CC(=O)N1CCc2ccccc2C1,0.0111
5,CCSc1ncc(/C=N/Nc2ccc([N+](=O)[O-])cc2)n1C,-0.053
6,Cc1cccc(C(=O)NCCN2CCCC2)c1,-0.101
7,O=C(/C=C/c1ccccc1)NC(=S)NNC(=O)Cc1cccs1,1.37
8,COc1cc(OC)nc(Oc2ccccc2C(=O)Oc2ccc(Cl)cc2)n1,-0.347
9,CCC(C)(C)n1nnnc1C(c1ccc2ncccc2c1)N1CCCCCC1 (configuration not stated),-0.34
10,c1cncc(-c2nnc3n2N=C(c2cccs2)CS3)c1,0.191
11,Cc1ccc2nc(NC(=O)CSc3nncc(=O)n3N)sc2c1,-0.12
12,c1cnc2c(c1)ncc1cscc12,-0.0509
13,COc1cccc2cc(C(=O)N(Cc3ccccc3)CC3CCCO3)c(=O)oc12 (configuration not stated),-0.307
14,Cc1ccc(Cl)cc1NC(=O)N[C@@H](C)C(=O)O,-0.33
15,CCCCCC(=O)Nc1ccc(S(=O)(=O)Nc2ccc(Cl)nn2)cc1,1.22
16,O=C(CCCCn1c(=O)[nH]c2ccsc2c1=O)NCc1cccnc1,-0.331
17,CCn1c(/C(C#N)=C(\O)CCc2ccccc2)nc2ccccc21,-0.23
18,Cc1cccc(N(CC(N)=O)C2SC(=O)N(c3ccccc3)C2=O)c1 (configuration not stated),0.258
19,O=C(Nc1nc(-c2cccs2)c(-c2ccccc2)s1)c1ccco1,0.0269
20,Cc1cc(N/N=C/c2ccc(O)cc2)nc(NS(=O)(=O)c2ccccc2)n1,-0.271
21,O=C(NCc1ccc2c(c1)OCO2)c1ccc(CS(=O)(=O)c2ccc(Br)cc2)o1,0.0812
22,COc1ccc(Cc2nnc(SCC(=O)NC3CCCC3)o2)cc1,0.209
23,Cc1c(C(=O)/C=C/c2cccs2)oc2ccc(F)cc12,-0.232

row,Structure (SMILES),z-score
1,O=c1c2c(-c3ccccc3)csc2ncn1/N=C/c1c2ccccc2cc2ccccc12,-0.133
2,Cc1nc(Sc2cccn2C)c(C(F)(F)F)c(=O)[nH]1,0.88
3,CCCC(OC(=O)CC1Sc2ccccc2NC1=O)C(=O)NCc1ccco1 (configuration not stated),0.0654
4,COc1ccc2cc(C(=O)COC(=O)COc3ccc4c(C)cc(=O)oc4c3)ccc2c1,-0.11
5,O=C(Nc1cc(S(=O)(=O)N2CCCCC2)ccc1O)c1ccccc1NS(=O)(=O)c1ccc(F)c(F)c1,-0.243
6,CCN(CC(=O)NC(C)C)Cc1nc2sc3c(c2c(=O)[nH]1)CCC3,-0.154
7,Nc1ccc(C2=Nc3cccc4cccc(c34)N2)cc1,0.475
8,O=C(NC1CCCCCC1)C1c2ccccc2C(=O)N1Cc1cccnc1 (configuration not stated),1.18
9,O=C(CCN1CCN(Cc2ccccc2)CC1)NNC(=O)Cc1ccc(Cl)c(Cl)c1,0.102
10,COc1ccccc1N1CCN(C(=O)c2c(-c3c(Cl)cccc3Cl)noc2C)CC1,-0.322
11,Clc1ccc(-c2nnc3n2CCCCC3)cc1,-0.169
12,O=C(NC1CCCCC1)C1CCCN1C(=O)NCc1ccccc1 (configuration not stated),0.608
13,CCOC(=O)C1=C(C)OC(N)=C(C#N)C1c1cc2cc(C)ccc2nc1N1CCCCC1 (configuration not stated),-0.112
14,CCOCc1nnc(NC(C)=O)s1,-0.745
15,Cc1ccc(C(=O)NN2C(=O)C3C4c5ccccc5C(c5ccccc54)C3C2=O)cc1 (configuration not stated),0.15
16,O=C(NCC12CC3CC(CC(C3)C1)C2)c1nn2c(c1Cl)NC(c1ccco1)CC2C(F)(F)F (configuration not stated),0.596
17,CCOc1ccc(S(=O)(=O)N/N=C2/CC(c3ccccc3)Oc3ccccc32)cc1 (configuration not stated),0.00369
18,CCOc1ccc(C(=O)Nc2ccc(N3CCN(C)CC3)cc2)cc1Br,0.501
19,O=C(Nc1ccc(F)cc1)N1CCN(c2ccc3nnc(-c4ccc(F)cc4)n3n2)CC1,-1.17
20,CCOC(=O)c1cc(NC(=O)N2CCOCC2)c(C)nc1C,0.183
21,O=C(Nc1ccc(Cl)cc1)OCc1cncs1,-0.283
22,CCSc1nnc(NC(=O)c2cccc(S(=O)(=O)N(C)c3ccc(C)cc3)c2)s1,-0.0838
23,Nc1nc(Cl)cc(N2CCC(c3cc(-c4ccc(Cl)cc4)n[nH]3)CC2)n1,0.086

row,Structure (SMILES),z-score
1,CC(C)C(=O)Nc1c(C(=O)c2ccc(F)cc2)oc2ccccc12,-0.347
2,Cc1noc(/C=C/N(C)C)c1S(=O)(=O)N1CCN(c2ccccc2)CC1,-0.527
3,CCCCCC[n+]1c(-c2ccccc2)csc1Nc1ccccc1,0.749
4,CCSc1nnc(-c2ccc(OC)cc2)o1,-1.05
5,O=C(O)c1ccc(OCC(O)Cn2cnc3ccccc32)cc1 (configuration not stated),0.0329
6,Cc1cc2n(n1)C(c1ccccc1)CC(c1ccc(Br)cc1)=N2 (configuration not stated),-0.216
7,CC(C)CC(=O)NC(=S)Nc1cc(C(=O)O)ccc1Cl,-0.602
8,COC(=O)c1sccc1NC(=S)N1CCCC(C)C1 (configuration not stated),1.11
9,Cc1csc(NC(=O)c2ccc(C)c(S(=O)(=O)N3CCCCC3)c2)n1,-0.0294
10,CCOc1ccc(Nc2nc(Cc3nnc(SCC(=O)O)o3)cs2)cc1,0.227
11,Cc1ccnc2nc(C(=O)Nc3ccc4c(c3)OCO4)nn12,0.0675
12,NC(=O)c1c(NC(=O)C2CCCO2)sc2c1CCC2 (configuration not stated),0.244
13,Cc1c(Cl)cccc1NC(=O)CSc1ncnc2c1cnn2CCc1ccccc1,0.508
14,Cc1cc(C)nc(N2CCC(CNC(=O)CCc3ccccc3)CC2)n1,-0.0691
15,O=C(CN(C1CCCCC1)S(=O)(=O)c1ccccc1)N1CCCC1,-0.0754
16,O=C(Nc1cccc(Cl)c1)N1CCN2C(=O)c3ccccc3C12c1ccccc1 (configuration not stated),-0.426
17,C/C(=N/NC(=O)Cc1c(C)[nH][nH]c1=O)c1ccc(O)cc1,-0.278
18,CCC1(CC)C(=O)NN(c2ccccc2)C1=O,-0.127
19,O=C(Nc1ccc(OCC(F)(F)C(F)F)c(C(F)(F)F)c1)c1ccccc1,-0.207
20,O=C(N/N=C/c1ccc(O)c(O)c1)c1ccc(CSc2cccc3cccnc23)cc1,-0.148
